Test results as given in publication PMC4336329 (PLoS ONE, 2015).
The campaign covered roughly 310,000 compounds. About 2,200 (0.71%) showed an effect of 50% or more. Effects have a minus sign here. This is one part of the list.

target: human ether-à-go-go-related gene (hERG) potassium channel (human, UniProt Q12809); assay: primary screen, population patch clamp on CHO cells stably expressing hERG
Sequence (Q12809 whole entry, looked up): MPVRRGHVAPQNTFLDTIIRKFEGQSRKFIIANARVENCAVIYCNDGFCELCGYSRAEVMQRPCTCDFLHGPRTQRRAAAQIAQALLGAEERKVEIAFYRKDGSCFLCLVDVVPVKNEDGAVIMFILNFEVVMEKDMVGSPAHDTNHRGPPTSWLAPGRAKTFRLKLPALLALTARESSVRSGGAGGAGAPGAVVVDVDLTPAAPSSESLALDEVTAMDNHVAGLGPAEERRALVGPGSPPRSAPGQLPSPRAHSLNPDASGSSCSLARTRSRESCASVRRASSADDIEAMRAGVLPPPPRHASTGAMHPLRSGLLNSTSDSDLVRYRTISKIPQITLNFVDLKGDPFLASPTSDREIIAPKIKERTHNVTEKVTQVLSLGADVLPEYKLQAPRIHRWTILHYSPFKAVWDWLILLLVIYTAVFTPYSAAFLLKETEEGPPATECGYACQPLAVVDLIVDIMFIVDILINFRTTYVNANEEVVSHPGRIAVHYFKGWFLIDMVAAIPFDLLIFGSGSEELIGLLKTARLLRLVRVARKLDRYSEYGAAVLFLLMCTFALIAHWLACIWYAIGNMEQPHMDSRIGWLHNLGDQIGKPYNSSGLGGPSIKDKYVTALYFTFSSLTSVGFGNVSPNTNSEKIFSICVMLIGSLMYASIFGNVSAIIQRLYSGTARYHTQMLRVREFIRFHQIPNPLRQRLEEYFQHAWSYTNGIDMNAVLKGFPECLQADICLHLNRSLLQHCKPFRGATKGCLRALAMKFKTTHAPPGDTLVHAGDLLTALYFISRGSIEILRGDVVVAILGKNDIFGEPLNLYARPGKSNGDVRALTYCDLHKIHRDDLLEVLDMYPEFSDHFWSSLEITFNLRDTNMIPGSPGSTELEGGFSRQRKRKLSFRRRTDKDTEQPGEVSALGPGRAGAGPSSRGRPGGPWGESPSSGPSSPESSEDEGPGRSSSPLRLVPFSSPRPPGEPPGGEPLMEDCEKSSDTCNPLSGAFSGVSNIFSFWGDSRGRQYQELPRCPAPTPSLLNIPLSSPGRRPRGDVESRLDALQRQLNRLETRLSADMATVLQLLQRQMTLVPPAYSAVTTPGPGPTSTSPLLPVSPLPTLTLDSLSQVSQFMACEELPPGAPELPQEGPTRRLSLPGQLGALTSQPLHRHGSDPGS

| Compound | hERG current change (%, negative = inhibition) at 1uM [%] |
| --- | --- |
| O=C(CSc1nnc(-c2ccccn2)o1)Nc1ccccc1F | 5.57 |
| CC(C)N1C(=S)SC(C)(C)C1n1oc(=O)n(-c2cccc(Cl)c2)c1=O (centres unmarked) | 8.79 |
| CCCC(=O)Nc1cccc(NC(=O)c2ccccc2Br)c1 | 7.21 |
| O=C(CCc1ccc(S(=O)(=O)N2CCOCC2)cc1)Nc1nc(COc2ccccc2)cs1 | 4.66 |
| CN1C(=O)NC(=O)/C(=C/c2ccc([N+](=O)[O-])s2)C1=O | 7.77 |
| CCCCn1nc2cc(C(=O)NCc3ccc4c(c3)OCO4)ccc2c1OCC | 30.6 |
| C=CC1=C(C(=O)O)N2C(=O)C(NC(=O)Cc3ccccc3)C2SC1 (centres unmarked) | 12.1 |
| Cc1noc(C)c1C(=O)Nc1sc(C)c(C)c1C#N | 10.8 |
| Cc1cc(C(=O)OCC(=O)NCc2ccccc2)c(C)o1 | 8.98 |
| CN(C)c1nc(NCc2ccccc2)nc(SCC(=O)Nc2ccccc2Cl)n1 | 17.1 |
| C/C(=N\Nc1ccc2nncn2n1)c1ccccn1 | 17.7 |
| CC(C)c1ccc(/C=C2\SC(=S)N(CCC(=O)N3CCCCC3CCO)C2=O)cc1 (centres unmarked) | 23.5 |
| CCCc1cc(=O)[nH]c2nnc(SCC(=O)Nc3cc(C)on3)n12 | 15.4 |
| CCOC(=O)CN(C(=O)COc1nc(-c2ccccc2)cc(C)c1C#N)c1ccc(F)cc1 | 6.09 |
| COc1ccc(CC2(CO)CCN(Cc3cccnc3)CC2)cc1 | 1.4 |
| Cc1cccn2c(=O)c(/C=C3\SC(=S)NC3=O)c(NCCCN3CCOCC3)nc12 | 7.48 |
| CCOC(=O)c1ccc2[nH]c3c(c2c1)CCCCC3=O | 11.8 |
| O=[N+]([O-])c1ccccc1S(=O)(=O)N(CC(O)CN1CCCCC1)c1ccccc1 (centres unmarked) | 2.79 |
| CC(=O)Nc1nonc1-c1nc2ccccc2n1Cc1nnc(C)o1 | 4.4 |
| CC(=O)N1CCCc2cc(S(=O)(=O)CCC(=O)N3CCN(c4cccc(C)c4)C(C)C3)ccc21 (centres unmarked) | 9.91 |
| O=C(COC(=O)COc1ccc(Cl)cc1)Nc1ccc(N2CCOCC2)cc1 | 18.3 |
| O=C1CCN(Cc2ccccc2)CCN1[C@H](COc1ccccc1)Cc1ccccc1 | -7.61 |

| Compound | hERG current change (%, negative = inhibition) at 1uM [%] |
| --- | --- |
| Nc1cc(-c2ccc(Cl)cc2)nn1S(=O)(=O)c1ccccc1 | 14.5 |
| CCCS(=O)(=O)N1CCN(Cc2ccccc2C(F)(F)F)CC1.O=C(O)C(=O)O | -1.7 |
| COc1cccc(CCC(=O)N2CCC(n3nccc3NC(=O)C3CCOC3)CC2)c1 (centres unmarked) | 14.1 |
| CCn1c(CNc2nc3ccccc3n2C(C)C)nc2ccccc21 | -10.1 |
| Nc1nc2c(s1)COc1ccccc1-2 | 13.7 |
| CC1(CCc2ccccc2)NC(=O)N(CC(=O)Nc2ccccc2)C1=O (centres unmarked) | 10.2 |
| COc1cccc(NC(=O)c2ccc3snnc3c2)c1 | 10.3 |
| CC1=C(C(=O)Nc2ccc(CC(=O)NCc3ccc(OC(C)C)cc3)cc2)SCCO1 | 10.4 |
| Cc1cc(C)c(C(=O)COc2cccnc2[N+](=O)[O-])cc1C | 8.78 |
| O=C(COC(=O)c1c2c(nc3ccccc13)CCCCC2)NCc1ccc2c(c1)OCO2 | 8.11 |
| Cc1ccnc(NC(=O)CCNS(=O)(=O)c2ccc(C)c(C)c2)c1 | 8.17 |
| CCN(CC)CCN1C(=O)c2ccccc2NC1c1ccc(Br)cc1 (centres unmarked) | -82.8 |
| COc1cc(C(=O)O[C@H]2C/C(C)=C/CC[C@@]3(C)O[C@@H]3[C@H](O)[C@@H]2C(C)C)cc(OC)c1OC | 7.07 |
| O=C(Nc1ccc(Cl)c(Cl)c1)N1CC=CCC1 | 7.3 |
| COCCCNC(=O)CC1Oc2ccccc2NC1=O (centres unmarked) | 4.19 |
| Cc1ccc(C)c(N2CCN(C(=O)CNS(=O)(=O)c3cccs3)CC2)c1 | 7.88 |
| COC(=O)C1=C(C(=O)OC)[C@@H]2N(C)c3ccc(OC)cc3[C@@]23C[C@@H](C(=O)OC)N(S(=O)(=O)c2ccc([N+](=O)[O-])cc2)C3=N1 | 8.39 |
| CCN(CC)C(=O)COc1ccc2oc(C)c(C(=O)OC(C)C)c2c1 | 11.8 |
| Cc1c(C(=O)NCCN2C(=O)S/C(=C\c3cccnc3)C2=O)cccc1[N+](=O)[O-] | -7.45 |
| CN=C(C)/C(C(=O)OC)=C(/O)c1ccccc1F | 10.5 |
| CNC(=O)CCSc1ccc(C)cc1 | 22.1 |
| CCN(CC)S(=O)(=O)c1ccc(NN)nc1 | 6.6 |

| Compound | hERG current change (%, negative = inhibition) at 1uM [%] |
| --- | --- |
| COc1ccccc1N1CCN(CCCCOc2cccc3ccccc23)CC1.Cl | 9.44 |
| Cc1cc(C)cc(-n2ccnc2SCC(=O)Nc2ccc3c(c2)OCCO3)c1 | 4.72 |
| COc1ccc(NC(=O)CC2C(=O)N(c3ccc(OC)cc3)C(=S)N2NC(=O)c2cccc(F)c2)cc1 (centres unmarked) | 7.6 |
| O=C(NC(=S)Nc1cccc(Cl)c1)c1cncc(Br)c1 | 13.3 |
| CC(C)(C)OC(=O)[C@H](Cc1ccccc1)NC(=O)c1[nH]cnc1C(=O)Nc1ccc(Cl)cc1 | 14 |
| O=C(c1ccco1)N1CCN(C(=O)c2cnn3c2NC(c2cccs2)CC3C(F)(F)F)CC1 (centres unmarked) | -3.66 |
| CCOC(=O)CN(C(=O)COc1nc(C)cc(C)c1C#N)c1ccc(F)cc1 | 0.234 |
| Cc1ccc2nsnc2c1NC(=O)c1ccccc1[N+](=O)[O-] | 15.7 |
| c1ccc(-c2ccncc2)nc1 | 20.9 |
| CCOc1ccccc1NC(=O)CSc1nnc(CNC(=O)c2ccccc2F)o1 | 7.37 |
| CC(C)(Oc1ccc(Cl)cc1)C(=O)N/N=C/c1cn[nH]c1-c1ccccc1 | 3 |
| C=CCn1c(=O)c2ccccc2n2c(Sc3nnnn3-c3ccccc3)nnc12 | 9.73 |
| Cc1ccc(/C=N/Nc2nncn2N)cc1.Cl | 17.9 |
| C/C(=N/OC(=O)c1cccc(C(F)(F)F)c1)c1cnccn1 | 4.48 |
| O=C(Cc1n[nH]c(=O)[nH]c1=O)N/N=C/c1cccc(Cl)c1 | 13.6 |
| CCN(C(=O)c1ccc(C)c(Br)c1)c1ccccc1 | 1.12 |
| CN1/C(=C/C(=O)C2CCC2)Sc2ccccc21 | 14.2 |
| O=C(NC(Cc1ccc(F)cc1)C(=O)O)c1ccccc1 (centres unmarked) | 12.8 |
| COc1cc(/C=N/NC(=O)CN(CCc2ccccc2)S(=O)(=O)c2ccc(NC(C)=O)cc2)cc(OC)c1OC | 1.07 |
| Cc1nc2ccccc2c(=O)n1NC(=O)c1ccccc1Cl | 10.4 |
| Cc1ccc(C(=O)COC(=O)CNC(=O)C(c2ccccc2)c2ccccc2)cc1[N+](=O)[O-] | 8.85 |
| COc1ccc(-c2ccc(-c3nnc(-c4cc(OC)ccc4OC)o3)cc2)cc1 | 5.76 |

| Compound | hERG current change (%, negative = inhibition) at 1uM [%] |
| --- | --- |
| CCN(CC)S(=O)(=O)c1ccc2[nH]c(=O)cc(C(=O)Nc3ccc(C)cc3)c2c1 | 9.25 |
| COCCn1cnc2c1c(=O)n(Cc1ccc(C#N)cc1)c(=O)n2Cc1ccccc1 | -4.86 |
| O=C(c1ccco1)N1CCN(C(=S)Nc2ccccc2C(F)(F)F)CC1 | 6.07 |
| O=C1C2ON(c3ccccc3)C(c3ccncc3)C2C(=O)N1c1ccccc1 (centres unmarked) | 2.82 |
| CCn1c(COc2ccc(C)cc2)nnc1SCC(=O)Nc1ccc(S(N)(=O)=O)cc1 | 9.73 |
| Cn1nc(CC(=O)Nc2ccc3c(c2)OCCO3)c2ccccc2c1=O | 9.68 |
| COc1ccc(C(=O)CCC(=O)N2CCN(c3cc(C)ccc3C)CC2)cc1 | -4.12 |
| CCCn1nnnc1NCc1cccc(OC)c1OC | 11.8 |
| COc1cc(N2CCCC2)c(OC)cc1/C=C(/C#N)c1cccc(Br)c1 | 15.6 |
| COC(=O)Cc1cc(OC)c(OC)cc1Cc1cc(OC)c(OC)cc1CC(=O)OC | 14.7 |
| COc1cc(CCC(=O)Nc2ccc(S(=O)(=O)NC3=NCCCCC3)cc2)cc(OC)c1OC | 11.4 |
| CCC(C(=O)NCc1ccccc1OC)c1ccccc1 (centres unmarked) | 6.18 |
| COc1ccc(-c2nc(C)sc2CC(=O)O)cc1 | 12.6 |
| Cc1cc(Sc2nccn2C)ncc1[N+](=O)[O-] | 7.02 |
| CCOc1ccc(C(C(=O)NC2CCCC2)N(C(=O)c2snc(C(N)=O)c2N)c2cccc(O)c2)cc1 (centres unmarked) | 11.3 |
| Cc1ccc(S(=O)(=O)N2CCC(C(=O)N[C@@H](C)C(=O)NCc3ccco3)CC2)cc1 | 0.0516 |
| Cc1ccc(S(=O)(=O)/C(C#N)=C/c2c(N3CC(C)OC(C)C3)nc3ccccn3c2=O)cc1 (centres unmarked) | 7.3 |
| COc1ccc(N2CCN(c3oc(-c4ccc(OC)c(OC)c4)nc3C#N)CC2)cc1 | -11 |
| CCOC(=O)c1cc(C(=O)OCC)c(=O)[nH]c1N1CCCCC1 | 16.1 |
| Cc1cc(C(F)(F)F)n2nc(-c3cccs3)cc2n1 | 10.4 |
